Source: the supplement of paper PMC8728848
Some of the results follow.

How the values were obtained:
Assay in all cases: glycan array binding signal (z-score within array); higher = stronger binding
Settings in all cases: glycan notation: IUPAC condensed, linker removed
[1] = target: Gal(b1-3)[Fuc(a1-4)]GlcNAc(b1-3)[Fuc(a1-3)[Gal(b1-4)]GlcNAc(b1-6)]Gal(b1-4)Glc
Procedure, shortened: (§1)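 The binding signal is a Z-score computed within each array and averaged over linkers. Arrays of the same protein sequence at different concentrations or buffers were also averaged together. Data originate from 3228 arrays in the Consortium for Functional Glycomics database, kept only where the protein sequence was available.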

[2] = target: Gal(b1-3)[Neu5Ac(a2-6)]GlcNAc(b1-3)Gal(b1-4)Glc
Procedure, shortened: as §1

[3] = target: Gal(b1-4)Glc
Procedure, shortened: as §1

[4] = target: Gal(b1-4)GlcNAc
Procedure, shortened: as §1

[5] = target: Gal(b1-4)GlcNAc(b1-2)Man(a1-3)[Gal(b1-4)GlcNAc(b1-2)Man(a1-6)]Man(b1-4)GlcNAc(b1-4)GlcNAc
Procedure, shortened: as §1

[6] = target: Gal(b1-4)GlcNAc(b1-2)Man(a1-3)[Gal(b1-4)GlcNAc(b1-2)Man(a1-6)]Man(b1-4)GlcNAc(b1-4)[Fuc(a1-6)]GlcNAc
Procedure, shortened: as §1

[7] = target: Gal(b1-4)GlcNAc(b1-2)Man(a1-3)[Gal(b1-4)GlcNAc(b1-2)Man(a1-6)][GlcNAc(b1-4)]Man(b1-4)GlcNAc(b1-4)[Fuc(a1-6)]GlcNAc
Procedure, shortened: as §1

[8] = target: Gal(b1-4)GlcNAc(b1-2)Man(a1-3)[Man(a1-6)]Man(b1-4)GlcNAc(b1-4)GlcNAc
Procedure, shortened: as §1

[9] = target: Gal(b1-4)GlcNAc(b1-2)Man(a1-6)[GlcNAc(b1-2)Man(a1-3)]Man(b1-4)GlcNAc(b1-4)[Fuc(a1-6)]GlcNAc
Procedure, shortened: as §1

[10] = target: Gal(b1-4)GlcNAc(b1-2)Man(a1-6)[Man(a1-3)]Man(b1-4)GlcNAc(b1-4)GlcNAc
Procedure, shortened: as §1

[11] = target: Gal(b1-4)GlcNAc(b1-2)Man(a1-6)[Man(a1-3)]Man(b1-4)GlcNAc(b1-4)[Fuc(a1-6)]GlcNAc
Procedure, shortened: as §1

[12] = target: Gal(b1-4)GlcNAc(b1-2)[Gal(b1-4)GlcNAc(b1-4)]Man(a1-3)[Fuc(a1-3)[Gal(b1-4)]GlcNAc(b1-2)Man(a1-6)]Man(b1-4)GlcNAc(b1-4)GlcNAc
Procedure, shortened: as §1

[13] = target: Gal(b1-4)GlcNAc(b1-2)[Gal(b1-4)GlcNAc(b1-4)]Man(a1-3)[Gal(b1-4)GlcNAc(b1-2)Man(a1-6)]Man(b1-4)GlcNAc(b1-4)GlcNAc
Procedure, shortened: as §1

[14] = target: Gal(b1-4)GlcNAc(b1-2)[Gal(b1-4)GlcNAc(b1-4)]Man(a1-3)[Gal(b1-4)GlcNAc(b1-2)[Gal(b1-4)GlcNAc(b1-6)]Man(a1-6)]Man(b1-4)GlcNAc(b1-4)GlcNAc
Procedure, shortened: as §1

[15] = target: Gal(b1-4)GlcNAc(b1-3)Fuc
Procedure, shortened: as §1

[16] = target: Gal(b1-4)GlcNAc(b1-3)Gal(b1-4)Glc
Procedure, shortened: as §1

[17] = target: Gal(b1-4)GlcNAc(b1-3)Gal(b1-4)GlcNAc(b1-3)Gal(b1-4)Glc
Procedure, shortened: as §1

[18] = target: Gal(b1-4)GlcNAc(b1-3)[Fuc(a1-3)[Gal(b1-4)]GlcNAc(b1-6)]Gal(b1-4)Glc
Procedure, shortened: as §1

[19] = target: Gal(b1-4)GlcNAc(b1-3)[Gal(b1-4)GlcNAc(b1-6)]Gal(b1-4)Glc
Procedure, shortened: as §1

[20] = target: Gal(b1-4)GlcNAc(b1-3)[Gal(b1-4)GlcNAc(b1-6)]Gal(b1-4)GlcNAc(b1-3)Gal(b1-4)Glc
Procedure, shortened: as §1

[21] = target: Gal(b1-4)GlcNAc(b1-3)[Gal(b1-4)GlcNAc(b1-6)]Gal(b1-4)GlcNAc(b1-3)[Gal(b1-4)GlcNAc(b1-6)]Gal(b1-4)GlcNAc(b1-3)Gal(b1-4)Glc
Procedure, shortened: as §1

[22] = target: Gal(b1-4)GlcNAc(b1-3)[Gal(b1-4)GlcNAc(b1-6)]Gal(b1-4)GlcNAc(b1-3)[Gal(b1-4)GlcNAc(b1-6)]Gal(b1-4)GlcNAc(b1-3)[Gal(b1-4)GlcNAc(b1-6)]Gal(b1-4)GlcNAc(b1-3)Gal(b1-4)Glc
Procedure, shortened: as §1

[23] = target: Gal(b1-4)GlcNAc(b1-3)[Gal(b1-4)GlcNAc(b1-6)]Gal(b1-4)GlcNAc(b1-3)[Gal(b1-4)GlcNAc(b1-6)]Gal(b1-4)GlcNAc(b1-3)[Gal(b1-4)GlcNAc(b1-6)]Gal(b1-4)GlcNAc(b1-3)[Gal(b1-4)GlcNAc(b1-6)]Gal(b1-4)GlcNAc(b1-3)Gal(b1-4)Glc
Procedure, shortened: as §1

[24] = target: Gal(b1-6)GalNAc
Procedure, shortened: as §1

[25] = target: Gal3S(b1-3)GalNAc(b1-4)Gal3S(b1-4)Glc
Procedure, shortened: as §1

[26] = target: Gal3S(b1-3)[Fuc(a1-4)]GlcNAc
Procedure, shortened: as §1

[27] = target: Gal3S(b1-3)[Fuc(a1-4)]GlcNAc(b1-3)Gal(b1-4)Glc
Procedure, shortened: as §1

[28] = target: Gal3S(b1-4)Glc
Procedure, shortened: as §1

[29] = target: Gal3S(b1-4)GlcNAc
Procedure, shortened: as §1

[30] = target: Gal3S(b1-4)GlcNAc(b1-3)Gal
Procedure, shortened: as §1

[31] = target: Gal6S(b1-3)[Fuc(a1-4)]GlcNAc(b1-3)Gal(b1-4)Glc
Procedure, shortened: as §1

[32] = target: GalNAc(a1-3)Gal(b1-4)Glc
Procedure, shortened: as §1

[33] = target: GalNAc(a1-3)GalNAc
Procedure, shortened: as §1

[34] = target: GalNAc(b1-4)Gal(b1-4)Glc
Procedure, shortened: as §1

[35] = target: GalNAc(b1-4)Gal3S(b1-4)Glc
Procedure, shortened: as §1

[36] = target: GalNAc3S(b1-4)Gal3S(b1-4)Glc
Procedure, shortened: as §1

[37] = target: Glc(a1-2)Glc
Procedure, shortened: as §1

[38] = target: Glc(a1-3)Man(a1-2)Man(a1-2)Man(a1-3)[Man(a1-2)Man(a1-3)[Man(a1-2)Man(a1-6)]Man(a1-6)]Man(b1-4)GlcNAc(b1-4)GlcNAc
Procedure, shortened: as §1

[39] = target: Glc(a1-4)Glc
Procedure, shortened: as §1

[40] = target: Glc(a1-4)Glc(a1-4)Glc
Procedure, shortened: as §1

[41] = target: Glc(a1-4)Glc(a1-4)Glc(a1-4)Glc
Procedure, shortened: as §1

[42] = target: Glc(a1-4)Glc(a1-4)Glc(a1-4)Glc(a1-4)Glc
Procedure, shortened: as §1

[43] = target: Glc(a1-6)Glc
Procedure, shortened: as §1

[44] = target: Glc(a1-6)Glc(a1-4)Glc(a1-4)Glc
Procedure, shortened: as §1

[45] = target: Glc(a1-6)Glc(a1-6)Glc
Procedure, shortened: as §1

[46] = target: Glc(a1-6)Glc(a1-6)Glc(a1-6)Glc
Procedure, shortened: as §1

[47] = target: Glc(a1-6)Glc(a1-6)Glc(a1-6)Glc(a1-6)Glc
Procedure, shortened: as §1

[48] = target: Glc(a1-6)Glc(a1-6)Glc(a1-6)Glc(a1-6)Glc(a1-6)Glc
Procedure, shortened: as §1

[49] = target: Glc(a1-6)Glc(a1-6)Glc(a1-6)Glc(a1-6)Glc(a1-6)Glc(a1-6)Glc
Procedure, shortened: as §1

[50] = target: Glc(a1-6)Glc(a1-6)Glc(a1-6)Glc(a1-6)Glc(a1-6)Glc(a1-6)Glc(a1-6)Glc
Procedure, shortened: as §1

[51] = target: Glc(b1-3)Glc(b1-3)Glc(b1-3)Glc(b1-3)Glc
Procedure, shortened: as §1

[52] = target: Glc(b1-3)Glc(b1-3)Glc(b1-3)Glc(b1-3)Glc(b1-3)Glc
Procedure, shortened: as §1

[53] = target: Glc(b1-3)Glc(b1-3)Glc(b1-3)Glc(b1-3)Glc(b1-3)Glc(b1-3)Glc(b1-3)Glc
Procedure, shortened: as §1

[54] = target: Glc(b1-3)Glc(b1-3)Glc(b1-3)Glc(b1-3)Glc(b1-3)Glc(b1-3)Glc(b1-3)Glc(b1-3)Glc(b1-3)Glc(b1-3)Glc
Procedure, shortened: as §1

[55] = target: Glc(b1-3)Glc(b1-3)Glc(b1-3)Glc(b1-3)Glc(b1-3)Glc(b1-3)Glc(b1-3)Glc(b1-3)Glc(b1-3)Glc(b1-3)Glc(b1-3)Glc(b1-3)Glc
Procedure, shortened: as §1

[56] = target: Glc(b1-4)Glc(b1-4)Glc(b1-4)Glc(b1-4)Glc
Procedure, shortened: as §1

[57] = target: Glc(b1-6)Glc(b1-6)Glc(b1-6)Glc(b1-6)Glc(b1-6)Glc(b1-6)Glc
Procedure, shortened: as §1

[58] = target: Glc(b1-6)Glc(b1-6)Glc(b1-6)Glc(b1-6)Glc(b1-6)Glc(b1-6)Glc(b1-6)Glc(b1-6)Glc(b1-6)Glc
Procedure, shortened: as §1

[59] = target: Glc(b1-6)Glc(b1-6)Glc(b1-6)Glc(b1-6)Glc(b1-6)Glc(b1-6)Glc(b1-6)Glc(b1-6)Glc(b1-6)Glc(b1-6)Glc
Procedure, shortened: as §1

[60] = target: Glc(b1-6)Glc(b1-6)Glc(b1-6)Glc(b1-6)Glc(b1-6)Glc(b1-6)Glc(b1-6)Glc(b1-6)Glc(b1-6)Glc(b1-6)Glc(b1-6)Glc(b1-6)Glc
Procedure, shortened: as §1

Measured: glycan array binding signal (z-score)

B1: CLECSF8 (Mus musculus), Q9Z2H6 (protein)
chain: HYFLRWTRGSVVKLSDYHTRVTCIREEPQPGATGGTWTCCPVSWRAFQSNCYFPLNDNQTWHESERNCSGMSSHLVTINTEAEQNFVTQLLDKRFSYFLGLADENVEGQWQWVDKTPFNPHTVFWEKGESNDFMEEDCVVLVHVHEKWVWNDFPCHFEVRRICKLPGITFNWKPSK
0.004: [43]
3.29: [44]
0.465: [29]
1.13: [48]
1.5: [50]
0.404: [51]
-0.163: [22]
0.639: [40]
0.775: [46]
0.034: [49]
0.673: [57]
1.73: [41]
0.06: [39]
0.699: [37]
1.01: [56]
0.858: [47] | [52]
2.26: [60]
-0.424: all other assays above
